Laboratory results from PubChem BioAssay AID488969 (Vanderbilt High Throughput Screening Facility, 2010).
Over roughly 110,000 compounds, “z-score” has its median near -0.1; the highest 2% begin near 2. The list shows a part of the results. Activity calls are given as the source filed them.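 The calls were made as follows: active = z-score in the third read window above 3 or below -3; inactive = the rest.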

Target: Metabotropic glutamate receptor 8 (Rattus norvegicus) (UniProt P70579)
Assay: mGluR8 Gi/Go-coupled signaling modulation – cell-based, rat, thallium flux, HTS, primary screen (AID 488969)
Conditions: HEK293 rat mGluR8, GIRK (G protein-gated inwardly rectifying potassium channel) thallium flux, FluoZin2; at 10 µM; stronger effect = higher value; submaximal glutamate (EC20) added with thallium

Chain of UniProt P70579 (P70579 whole entry, looked up): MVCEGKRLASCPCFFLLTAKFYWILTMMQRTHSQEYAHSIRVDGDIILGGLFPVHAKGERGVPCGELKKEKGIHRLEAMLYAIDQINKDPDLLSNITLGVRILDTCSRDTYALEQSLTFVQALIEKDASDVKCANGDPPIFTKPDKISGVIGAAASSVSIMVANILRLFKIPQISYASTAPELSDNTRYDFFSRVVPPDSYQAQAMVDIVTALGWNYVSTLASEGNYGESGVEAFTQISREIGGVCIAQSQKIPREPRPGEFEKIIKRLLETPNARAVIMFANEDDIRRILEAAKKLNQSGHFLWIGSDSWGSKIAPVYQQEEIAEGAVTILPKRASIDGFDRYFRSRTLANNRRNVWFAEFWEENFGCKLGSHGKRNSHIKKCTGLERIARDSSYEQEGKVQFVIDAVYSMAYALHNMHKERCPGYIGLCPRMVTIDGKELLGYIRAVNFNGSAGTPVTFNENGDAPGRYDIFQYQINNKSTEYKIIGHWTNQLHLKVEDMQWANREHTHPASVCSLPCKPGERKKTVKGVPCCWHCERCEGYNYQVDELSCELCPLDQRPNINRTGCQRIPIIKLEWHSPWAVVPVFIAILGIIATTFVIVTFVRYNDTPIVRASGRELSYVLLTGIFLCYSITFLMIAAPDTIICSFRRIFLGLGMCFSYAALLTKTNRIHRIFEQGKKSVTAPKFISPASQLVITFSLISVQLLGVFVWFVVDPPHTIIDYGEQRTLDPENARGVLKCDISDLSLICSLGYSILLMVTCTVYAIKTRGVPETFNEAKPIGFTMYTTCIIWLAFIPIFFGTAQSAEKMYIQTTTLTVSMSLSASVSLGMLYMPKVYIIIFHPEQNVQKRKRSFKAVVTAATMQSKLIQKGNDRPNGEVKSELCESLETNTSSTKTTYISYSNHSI

SMILES | z-score
COc1ccc(C(=O)NCC2OCCc3ccccc32)c(O)c1 (stereo not given) | 0.0231
CCOc1ccc(C(=O)Nc2c3c(nn2-c2ccc(C)cc2)CS(=O)C3)cc1OCC (stereo not given) | 0.0188
O=C(O)CCC(=O)Nc1cccc(C(=O)Nc2cccc(Cl)c2)c1 | -0.326
CCCc1[nH]n(-c2ccc(F)cc2)c(=O)c1C=Nc1cccc(F)c1 | 0.195
Cc1ccc(Cl)cc1N1CCN(C(=O)C2CCN(S(=O)(=O)c3cccnc3)CC2)CC1 | 0.308
Cc1ccc(C(=O)C(=S)N2CCOCC2)cc1 | -0.209
CCCCCCn1c(CN2CCCCC2C)nc2c1c(=O)n(C)c(=O)n2C (stereo not given) | -0.304
CCOC(=O)C1CCN(C(=O)CCc2c(C)nc3c(-c4ccc(F)cc4)c(C)nn3c2C)CC1 | -0.801
Cc1csc(NC(=O)CSc2nnc3ncccn23)n1 | 0.932
Cc1cccc(N2C(=O)CC(N3CCN(c4cccc(C(F)(F)F)c4)CC3)C2=O)c1 (stereo not given) | 0.337
Cc1ccc(S(=O)(=O)N2CCOCC2)cc1NC(=O)COC(=O)c1ccc(OCc2c(C)noc2C)cc1 | -0.346
O=C(C1CCCN1S(=O)(=O)c1cccc2cccnc12)N1CCc2ccccc2C1 (stereo not given) | -0.115
CN(C)S(=O)(=O)c1ccc(Nc2nc(C3CC3)nc3c2nnn3Cc2ccccc2Cl)cc1 | -0.0504
Cc1ccc(Cl)cc1N1CCN(C(c2ccc(C#N)cc2)c2nnnn2C2CCCC2)CC1 (stereo not given) | -0.969
CC(C)CC(=O)N1CCC(O)(CS(=O)(=O)Cc2ccc(Cl)cc2)CC1 | 0.234
COc1cc(C2N(c3cccc(Cl)c3)C(=O)C3CCCN32)cc(OC)c1OC (stereo not given) | -0.543
CCOC(=O)c1c(NC(=O)CSc2nnc(-c3cccc(C)c3)n2CC)sc(C(C)=O)c1C | -0.735
Nc1ccc(/C=C/C(=O)c2ccco2)cc1 | 0.559
CC(C)(C)C(=O)Cn1c(NCCO)nc2ccccc21 | -0.265
O=C(N/N=C/c1ccccn1)c1ccc(Br)cc1 | 1.82
CCOC(=O)c1c(NC(=O)CC)sc(C(=O)N2CCCCC2)c1C | -0.285
CCc1cc2c(=O)n(N)c(CCC(=O)O)nc2s1 | -0.0861
Cc1occc1-c1nnc(SCC(=O)N2CCN(c3ccc(F)cc3)CC2)n1C | 0.0114
Cc1oc(C(=O)O)cc1CSCc1ccoc1C(=O)O | -0.104
COC(=O)CC(=O)CSc1nc2c(cc1C#N)CCC2 | -0.106
CCN(CC(=O)NC(C)C)C(=O)CCNC(=O)c1ccc(Cl)cc1 | -0.244
Cc1ccc(N(C(=O)c2nsc(Cl)c2Cl)C(C(=O)NC2CCCC2)c2ccc(O)cc2)cc1C (stereo not given) | -0.249
COc1ccc(/C=C2/SC(=O)N(CC(=O)Nc3cc(C)on3)C2=O)cc1OC | -0.00401

SMILES | z-score
CCCCOC(=O)c1ccc(NC(=O)C(=O)NCC2CCCO2)cc1 (stereo not given) | -0.0254
CCC1Oc2ccc(C)cc2N(CC(=O)NCC2COc3ccccc3O2)C1=O (stereo not given) | -0.0996
CCCOc1ccc(/C=C/C(=O)Nc2ccc([N+](=O)[O-])cc2C)cc1 | -0.157
COc1ccc(Cn2c(CCC(=O)Nc3ccc(C)c(C)c3)nc3cccnc32)cc1 | -0.0657
CC(=O)Nc1ccc(NC(=O)c2ccccc2Sc2ccc([N+](=O)[O-])cc2Cl)cc1 | -0.764
CCc1cccc(C)c1NC(=S)NCc1cccn1C | -0.189
O=C(NC1CCCC1)C(c1ccccc1)N(Cc1ccc2c(c1)OCO2)C(=O)Cc1cccs1 (stereo not given) | -0.25
COc1ccc(C2/C(=C(/O)c3ccccc3)C(=O)C(=O)N2c2ccccn2)c(OC)c1 (stereo not given) | -0.664
COC(=O)c1cc(OC)c(OC)cc1NC(=O)Nc1ccc(OC)cc1OC | active: 3.48
O=C(Oc1ccc(Cl)c2cccnc12)c1ccco1 | 0.951
CCc1ccc(NC(=O)C2CCCCC2C(=O)O)cc1 (stereo not given) | 0.156
Cc1ccc(CNC(=O)C2C3C=CC(C3)C2C(=O)O)cc1 (stereo not given) | -0.366
O=C(Nc1ccccc1)c1ccccc1O | -0.321
COc1cc(NC(=S)NCCc2c[nH]c3ccccc23)c(OC)cc1Cl | -0.146
CCCCOC(=O)n1c(=S)oc2cc(Cl)ccc21 | -0.00789
Cc1cc(C)cc(C(=O)NCC(=O)OCc2cc([N+](=O)[O-])cc3c2OCOC3)c1 | -0.324
COC(=O)c1ccc(NC(=O)c2ccccc2N(C)S(=O)(=O)c2ccccc2)cc1 | -0.256
C=CCn1c(SCC(=O)c2cccs2)nc2sc(C)cc2c1=O | -0.445
Clc1ccc(SCc2nc3ccccc3[nH]2)cc1 | -0.0715
Cn1ncc(Br)c1C(=O)Nc1c(F)c(F)cc(F)c1F | -0.0493
CN(N)c1nc(-c2ccccc2)nnc1C(F)(F)F | -0.198
O=C(COC(=O)C1CCC(=O)N1)Nc1ccc(Cl)cc1Cl (stereo not given) | 0.123
CC(=O)N/C(=C/c1ccc2c(c1)OCO2)C(=O)NCCCO | 0.178
CCOC(=O)c1nnn(-c2nonc2N)c1-c1ccc(OC)cc1 | -0.5
Cc1occc1-c1nnc(SCC(=O)c2ccc(F)cc2)n1Cc1ccco1 | -0.301
COc1ccc(OC)c(C(=O)COC(=O)C2CC3CCCC(C2)C3=O)c1 (stereo not given) | 1.3
Cc1ccc(CSc2nnc(-c3ccccc3N)c(=O)[nH]2)cc1 | 0.394
